Results published in paper PMC8244865, “Recruitment of phospholipase Cγ1 to the non-structural membrane protein pK15 of Kaposi Sarcoma-associated herpesvirus promotes its Src-dependent phosphorylation” (PLoS Pathogens, 2021).
Residue numbers refer to the chain shown, from its start. Numbers in names are those of the source. Read-outs that look alike come from different tables or passages of the source. Results are given in words; binding and its absence hold for the method and conditions named. For some assays here: In cells and extracts the contact can be indirect. Some binding calls cover weakened binding; strength is not graded here. For some assays here: Tags and fused reporters may be left off the sequences shown.

Legend:
[1] = molecular target: T1, GST-fused pK15 cytoplasmic tail (pK15 CT WT), phosphorylated in vitro by Src (Kaposi Sarcoma-associated herpesvirus (KSHV, HHV-8)) (UniProt Q9QR69); test: pull-down; GST-pK15 CT proteins on glutathione beads, phosphorylated in vitro by Src or left unphosphorylated, incubated overnight at 4°C with HEK-293T lysate (transfected or untransfected) in IP buffer (50 mM Tris pH7.6, 60 mM NaCl) with phosphatase inhibitors; Western blot; only the target purified
T1 sequence (chain, phosphotyrosine at Y481 (dominant band) and Y431 (minor band), in vitro by Src): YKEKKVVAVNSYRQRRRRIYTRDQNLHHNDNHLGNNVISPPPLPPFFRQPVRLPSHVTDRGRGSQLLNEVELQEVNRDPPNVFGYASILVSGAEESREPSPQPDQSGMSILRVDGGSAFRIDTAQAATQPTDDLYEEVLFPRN

[2] = molecular target: T1, GST-fused pK15 cytoplasmic tail (pK15 CT WT), phosphorylated in vitro by Src (Kaposi Sarcoma-associated herpesvirus (KSHV, HHV-8)); test: as above; remark: listed apart in the source
[3] = molecular target: T2, PLCγ1 cSH2 domain (aa 668-790) (UniProt P19174); test: NMR titration; 1H-15N HSQC of 15N-labelled nSH2 or cSH2 (100 μM) with increasing pK15 12mer peptide up to 2 molar equivalents, 600 MHz, 298 K, 100 mM MES, 150 mM NaCl, 3 mM TCEP, pH 6.5; both purified
T2 sequence: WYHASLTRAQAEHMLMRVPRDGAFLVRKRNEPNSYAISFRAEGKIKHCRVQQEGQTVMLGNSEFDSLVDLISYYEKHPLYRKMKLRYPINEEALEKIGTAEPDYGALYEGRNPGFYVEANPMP

[4] = molecular target: T3, 5,6-FAM-labelled phosphorylated pK15 12mer peptide (Kaposi Sarcoma-associated herpesvirus (KSHV, HHV-8)); test: microfluidic diffusional sizing (Fluidity One-W); 200 nM 5,6-FAM peptide held constant, PLCγ1 domains varied from 0 nM to 8000 nM, room temperature, 100 mM MES, 150 mM NaCl, 3 mM TCEP, pH 6.5; hydrodynamic radius fitted; triplicate; both purified
T3 sequence (peptide, phosphotyrosine at Y481 (4th residue); 5,6-FAM at the N-terminus): DDLYEEVLFPRN

S-tagged full length PLCγ1 R586L+R694L double mutant (from UniProt P19174 1-1290)
binding [1]: binds

S-tagged full length PLCγ1 R694L (from UniProt P19174 1-1290)
binding [1]: binds

S-tagged full length PLCγ1 R586L (from UniProt P19174 1-1290)
binding [1]: binds

B1: S-tagged full length PLCγ1, transfected (protein, UniProt P19174 1-1290)
chain: MAGAASPCANGCGPGAPSDAEVLHLCRSLEVGTVMTLFYSKKSQRPERKTFQVKLETRQITWSRGADKIEGAIDIREIKEIRPGKTSRDFDRYQEDPAFRPDQSHCFVILYGMEFRLKTLSLQATSEDEVNMWIKGLTWLMEDTLQAPTPLQIERWLRKQFYSVDRNREDRISAKDLKNMLSQVNYRVPNMRFLRERLTDLEQRSGDITYGQFAQLYRSLMYSAQKTMDLPFLEASTLRAGERPELCRVSLPEFQQFLLDYQGELWAVDRLQVQEFMLSFLRDPLREIEEPYFFLDEFVTFLFSKENSVWNSQLDAVCPDTMNNPLSHYWISSSHNTYLTGDQFSSESSLEAYARCLRMGCRCIELDCWDGPDGMPVIYHGHTLTTKIKFSDVLHTIKEHAFVASEYPVILSIEDHCSIAQQRNMAQYFKKVLGDTLLTKPVEISADGLPSPNQLKRKILIKHKKLAEGSAYEEVPTSMMYSENDISNSIKNGILYLEDPVNHEWYPHYFVLTSSKIYYSEETSSDQGNEDEEEPKEVSSSTELHSNEKWFHGKLGAGRDGRHIAERLLTEYCIETGAPDGSFLVRESETFVGDYTLSFWRNGKVQHCRIHSRQDAGTPKFFLTDNLVFDSLYDLITHYQQVPLRCNEFEMRLSEPVPQTNAHESKEWYHASLTRAQAEHMLMRVPRDGAFLVRKRNEPNSYAISFRAEGKIKHCRVQQEGQTVMLGNSEFDSLVDLISYYEKHPLYRKMKLRYPINEEALEKIGTAEPDYGALYEGRNPGFYVEANPMPTFKCAVKALFDYKAQREDELTFIKSAIIQNVEKQEGGWWRGDYGGKKQLWFPSNYVEEMVNPVALEPEREHLDENSPLGDLLRGVLDVPACQIAIRPEGKNNRLFVFSISMASVAHWSLDVAADSQEELQDWVKKIREVAQTADARLTEGKIMERRKKIALELSELVVYCRPVPFDEEKIGTERACYRDMSSFPETKAEKYVNKAKGKKFLQYNRLQLSRIYPKGQRLDSSNYDPLPMWICGSQLVALNFQTPDKPMQMNQALFMTGRHCGYVLQPSTMRDEAFDPFDKSSLRGLEPCAISIEVLGARHLPKNGRGIVCPFVEIEVAGAEYDSTKQKTEFVVDNGLNPVWPAKPFHFQISNPEFAFLRFVVYEEDMFSDQNFLAQATFPVKGLKTGYRAVPLKNNYSEDLELASLLIKIDIFPAKENGDLSPFSGTSLRERGSDASGQLFHGRAREGSFESRYQQPFEDFRISQEHLADHFDSRERRAPRRTRVNGDNRL
binding [2]: binds

B2: endogenous PLCγ1 of HEK-293T cells (protein, UniProt P19174 1-1290)
chain: B1 chain
binding [2]: binds

DDLYEEVLFPRN (phosphotyrosine at Y481 (4th residue)) [phosphorylated 12mer pK15 peptide]
binding [3]: binds

B3: PLCγ1 nSH2 R586L (aa 545-662) (domain or fragment, UniProt P19174 545-662)
chain: HSNEKWFHGKLGAGRDGRHIAERLLTEYCIETGAPDGSFLVLESETFVGDYTLSFWRNGKVQHCRIHSRQDAGTPKFFLTDNLVFDSLYDLITHYQQVPLRCNEFEMRLSEPVPQTNA
binding [4]: no binding (tested: up to 8000 nM PLCγ1 domain)

B4: PLCγ1 cSH2 R694L (aa 668-790) (domain or fragment, UniProt P19174 668-790)
chain: T2 sequence with R27L
binding [4]: no binding (tested: up to 8000 nM PLCγ1 domain)
